The list shows a part of the results. At the low end of the ranking, values are background and their order means little. The protein was read in a cell extract, so binding may be indirect.
Target: T1, HNF4alpha2 (COS-7 nuclear extract) (UniProt P41235)
T1 sequence: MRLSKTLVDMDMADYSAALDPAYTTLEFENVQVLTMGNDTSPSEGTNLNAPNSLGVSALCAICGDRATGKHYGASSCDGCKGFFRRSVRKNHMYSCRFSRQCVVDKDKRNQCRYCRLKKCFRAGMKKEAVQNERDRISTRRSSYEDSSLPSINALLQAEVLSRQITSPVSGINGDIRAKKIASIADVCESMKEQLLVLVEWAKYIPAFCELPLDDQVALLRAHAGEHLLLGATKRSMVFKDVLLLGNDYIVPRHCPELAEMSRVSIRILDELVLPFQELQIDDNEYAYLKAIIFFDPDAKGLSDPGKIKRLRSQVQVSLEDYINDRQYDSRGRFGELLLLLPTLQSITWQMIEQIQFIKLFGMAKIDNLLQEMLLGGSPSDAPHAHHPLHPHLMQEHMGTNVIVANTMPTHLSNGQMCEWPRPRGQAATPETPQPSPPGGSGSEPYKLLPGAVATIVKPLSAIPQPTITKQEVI
Assay: protein-binding microarray
Conditions: COS-7 nuclear extract on double-stranded Agilent 4x180k PBM; binding buffer, salt, pH and temperature not given; high values mean tight binding; double strand, one strand shown; sequences stand for … in …GCCTAGGGAGATTAGAGTATCGGTCGA

Row | Sequence | binding signal (log2 normalized intensity)
1 | CTGAATCAAGGTTTCTTTCCCTGGGGTCAA | 3.59
2 | AACGAGACCTTAGCCCTGAACAAACAGCTT | -1.09
3 | TTGCAACCTTTGCCCTGTTGTCTTTGCCCA | 4.15
4 | CAGGACCTGCCATTTTTTCAAACACCTGGG | -1.09
5 | GCCGGGAAAACCCGGAGCGGAGCATCCCTC | -1.17
6 | TGCTCCCAAAGCAAACCTCCCCAGCCCAGG | 3.2
7 | AATTTCAAATTTGCACCTGCCTTTAGGCAT | -1.21
8 | AGCTTAGGGTTCAAACTCCAGCTCTGATAC | 2.77
9 | TGTGATCTTGGGTAAGCCACTGAACTTTCA | 2.38
10 | AAGGGTTCATCTGACTGGAAGAGCCTGCAA | -1.06
11 | GTGGGTAATTAACTCCCCCTGCCCCCAGGT | 4.93
12 | CCATCAGTGGACTTTGACCTTGTTTTCAAT | 9.03
13 | ATGAGATAAGGTTCTGATAAAGTATCTTCA | -0.711
14 | ACACGAAACAAGTAGCAGTTCAAAAGTTCA | 1.1
15 | GCACTTGATGTTCCCCCTCCCTGGACTCCT | 4.45
16 | GGCAGGTCTCTCTCATTCACACCCTCAGCT | -0.685
17 | GAGGGAGCCGCTGTGTGGGAAGAGGGCCTA | -1.24
18 | TTCGAATATTTGTGATTTGAAATTTGTCCT | 2.51
19 | AGTGGAGAAATAACATTAATGGAAATGCCT | -0.84
20 | TAAAACATCTTTGAAGAGCACAGGGTCAGC | 1.51
21 | CAAGCTTGATCCAGGATCCTTCTTGACCAG | 0.316
22 | GGAGGCAGGGAGACAACCTGGGTGTAGGTG | -0.981
23 | CGGGGAACCCAGCAAACCTGTCTCTCTGCA | -1.06
24 | ACCCGGCGCGGACATAAAATTAAAGCGGAC | -1.12
25 | CCATCATGTGTACAGAGCTGAAGTTTGCAA | 0.852

Row | Sequence | binding signal (log2 normalized intensity)
26 | TAGCAAAGAAACTCGTGGCATTTTTGCCCC | 2.39
27 | TCTGTCCTTTGTGTTTATGGCAAATTGATA | 1.81
28 | GAACTGAGTTACTTGTGCTAAGTGCCATGT | 1.4
29 | GTGATAAAACCCATGGACCTGACACCCGCT | -1.06
30 | CCAAAGTCCGCCACTAGCAACAGCTGCAGT | -1.21
31 | AGTGCAATGCCTAAACCAGGATCCAGTCCT | -1.19
32 | TCTTGGGTAAGCCACTGAACTTTCACTGCC | 1.22
33 | ACCTGAGTGCCAGAGCTGTGAAGACTGCAG | -1.06
34 | CCACACTCTCCCCACCCCCAAATCCCCTTC | 5.78
35 | AAGCAGCGATGGAAGGGATGGGGTGCAAAC | -1.18
36 | TCCCCGTCACCCTCCCCGCCACCCCCCAGA | 7.45
37 | CAAGATAACAAGGCAAACTTTATCAAGACT | -1.17
38 | GGCCTCTCTGCAAATTTGCCTTGTCCTTAG | 0.913
39 | CTGTTTCCTACTGACCTCCGACCCCACGGA | 4.92
40 | GTCCAGGGCCCTTACCATCAATCACATTGT | -1.07
41 | GCAAAGGTCACAAGAGGTGCTGTGTGCCTG | 0.923
42 | TCACACAATCAGTGTGTTGACATTTGAACC | 3.77
43 | CTCCTATCCTCTGATCCCCAGGTCATAAGA | 2.06
44 | CTGACCCTAGATGAGATAAGGTTCTGATAA | -0.279
45 | TCTCCAAGGTTATTATATTGTGGGTTCTTG | 2.25
46 | AGGTTCAGTGAAGTAGTGTGTATGAAAGGC | 0.788
47 | CCTTGCTGATAAAACAGCATGCGGTAAAGA | -0.0345
48 | TTGATAAACAGATAACTGGGGGCAAAGGTT | 6.16
49 | TGATCCCTGACTCATAGCTCCAGAGCCACC | -1.23
50 | ACTACTTATCTCCAAGACCCTTCATAGCTT | -0.887

Row | Sequence | binding signal (log2 normalized intensity)
51 | CAGCTAAAGCCTGCTCGTTGGGGGTCACCC | 2.97
52 | CTCGCCTGGCTCCCCACGTGGCAATCATTC | -1
53 | AACTTTCAAGATGAAGCAAGAGTCCAAATT | 2.14
54 | CAACCCATCCAACTCCTTGAGAAGTACAAC | -0.342
55 | ATTTGACAATTTACAGTGTTCAAAGGTAGC | 1.66
56 | TTTCATTGAACTGCTGGGGGTAAAGTGGAT | 1.65
57 | CTGACCTCCGACCCCACGGACTTAAATTGT | 2.76
58 | CTTTGAAAAAACCTGTTCAGCCAGATTCTC | -1.03
59 | ACCTGTACAGGGACTGTGTCAACAAGGTAT | 0.801
60 | CTGAGGAAAAAAGTTTGAAAATGCCTTGAA | 0.0239
61 | AGCATTTTTGTATGCATAAGGCCTTGGACC | 3.11
62 | AATGAAACATTGTGACTTCCTCATGATCGC | 0.419
63 | CATAGTAACAACCTAAATCAGAGCACCATT | -1.14
64 | ACGGACTTAAATTGTGCTGTGTCAGAGTTG | 1.53
65 | CTGCACCTTGACCTCCTGGGCCCAAGTGCT | 2.42
66 | CCAAGAGCGGAAAGAAAGGCCTTTCATACG | -1.09
67 | GCGGCGGAACGCGCGGGCAGGTTGCCCTTT | 4.4
68 | TGGAGGCCAAAAGTAGGGAGGAGGGGAGGG | -1.04
69 | GCTCCGCCGGACCGGCCAAACTGGTTTCTC | -1.07
70 | ACCAAACAAAATTAATGTGCCTGCCACATC | -1.19
71 | CCAGATGAGATAGGAGGTCAGCACAAGATA | -1.24
72 | GAGAGTTTTCCTTGGCTGTGCTGCCCTTTG | 3.6
73 | ACCAGATAAGGCAGTGGTTTGCAGTTGGAA | 1.21
